Experimental data from the supplement of paper PMC12217912.
The list shows a part of the results. The full chains were built here from the parent and the listed change. Inactive controls read about 0.05.

B1: TEV protease; numbered along this chain (parent)
chain: MGESLFKGPRDYNPISSSICHLTNESDGHTTSLYGIGFGPFIITNKHLFRRNNGTLVVQSLHGVFKVKDTTTLQQHLVDGRDMIIIRMPKDFPPFPQKLKFREPQREERICLVTTNFQTKSMSSMVSDTSCTFPSGDGIFWKHWIQTKDGQCGSPLVSTRDGFIVGIHSASNFTNTNNYFTSVPKNFMELLTNQEAQQWVSGWRLNADSVLWGGHKVFMVKPEEPFQPVKEATQL

Variants of: B1
Experiment: raw area under fraction-flipped curve 0-4 h after induction (AUC4h, not background-subtracted), DNA-recorder readout of cleavage of the substrate (dimensionless); higher = more cleavage of the substrate by the protease variant
Conditions: temperature: 34 °C; time window: 0-4 h after rhamnose induction
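Further: Bxb1 expression induced with 0.2% (w/v) L-rhamnose at OD600 near 0.5, cultures sampled hourly, flipped fraction per protease–substrate barcode pair counted by paired-end Illumina sequencing.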

Variant | area with substrate EDLYFQS | area with substrate EHLYFQS | area with substrate EILYFQS | area with substrate ELLYFQS | area with substrate EPLYFQS | area with substrate EQLYFQS | area with substrate ERLYFQS | area with substrate ESLYFQS | area with substrate EVLYFQS | area with substrate EELYFQS | area with substrate EKLYFQS | area with substrate EMLYFQS | area with substrate ETLYFQS | area with substrate EFLYFQS | area with substrate EYLYFQS | area with substrate EGLYFQS | area with substrate EWLYFQS
MGESLFKGPRDYNPISSSICHLTNESDGHTTSLYGIGFGPFIITNKHLFRRNNGTLVVQSLHGVFKVKDTTTLQQHLVDGRDMIIIRMPKDFPPFPQKLKFREPQREERICLVTTNFQTKSMSSMVSDTSCTFPSGDGIFWKHWIQTKDGQCGSPLVSTRRGFIVGIHSASNFTNTNNYFTSVPKNFMELLTNQEAQQWVSGWRLNADSVLWGGHKVFMVKPEEPFQPVKEATQL [D161R] | 0.0731 | 0.0675 | 0.0496 | 0.0542 | 0.0503 | 0.0588 | 0.0677 | 0.0558 | 0.0567 |  |  |  |  |  |  |  | 
MGESLFKGPRDYNPISSSICHLTNESDGHTTSLYGIGFGPFIITNKHLFRRNNGTLVVQSLRGVFKVKDTTTLQQHLVDGRDMIIIRMPKDFPPFPQKLKFREPQREERICLVTTNFQTKSMSSMVSDTSCTFPSGDGIFWKHWIQTKDGQCGSPLVSTRDGFIVGIHSASNFTNTNNYFTSVPKNFMELLTNQEAQQWVSGWRLNADSVLWGGHKVFMVKPEEPFQPVKEATQL [H62R] | 0.114 |  | 0.0911 |  |  |  |  |  | 0.115 | 0.106 | 0.157 | 0.0794 | 0.0988 |  |  |  | 
MGESLFKGPRDYNPISSSICHLTNESDGHTTSLYGIGFGPFIITNKHLFRRNNGTLVVQSLHGVFKVKDTTTLQQHLVDGRDMIIIRMPKDFPPFPQKLKFREPQREERICLVTFNFQTKSMSSMVSDTSCTFPSGDGIFWKHWIQTKDGQCGSPLVSTRDGFIVGIHSASNFTNTNNYFTSVPKNFMELLTNQEAQQWVSGWRLNADSVLWGGHKVFMVKPEEPFQPVKEATQL [T115F] | 0.118 | 0.112 | 0.0796 | 0.0777 | 0.112 | 0.112 |  | 0.106 |  | 0.13 | 0.0739 | 0.108 | 0.081 |  |  |  | 
MGESLFKGPRDYNPISSSICHLTNESDGHTTSLYGIGFGPFIITNKHLFRRNNGTLVVQSLHGVFKVKDTTTLQQHLVDGRDMIIIRMPKDYPPFPQKLKFREPQREERICLVTTNFQTKSMSSMVSDTSCTFPSGDGIFWKHWIQTKDGQCGSPLVSTRDGFIVGIHSASNFTNTNNYFTSVPKNFMELLTNQEAQQWVSGWRLNADSVLWGGHKVFMVKPEEPFQPVKEATQL [F92Y] | 0.156 |  | 0.0913 | 0.0662 |  | 0.117 | 0.104 | 0.133 | 0.0981 | 0.143 | 0.111 |  | 0.118 | 0.0961 | 0.122 |  | 
MGESLFKGPRDYNPISSSICHLTNESDGHTTSLYGIGFGPFIITNKHLFRRNNGTLVVQSLHGVFKVKDTTTLQQHLVDGRDMIIIRMPKDFPPFPQKLKFREPQREERICLVTTNFQTKSMSSMVSDTSCTFPSGDGIFWKHWIQTKDQQCGSPLVSTRDGFIVGIHSASNFTNTNNYFTSVPKNFMELLTNQEAQQWVSGWRLNADSVLWGGHKVFMVKPEEPFQPVKEATQL [G150Q] | 0.0512 |  | 0.0635 | 0.0594 |  | 0.0525 | 0.0614 | 0.0571 |  | 0.0774 |  | 0.0531 |  |  |  | 0.0583 | 0.0673
MGESLFKGPRDYNPISSSICHLTNESDGHTTSLYGIGGGPFIITNKHLFRRNNGTLVVQSLHGVFKVKDTTTLQQHLVDGRDMIIIRMPKDFPPFPQKLKFREPQREERICLVTTNFQTKSMSSMVSDTSCTFPSGDGIFWKHWIQTKDGQCGSPLVSTRDGFIVGIHSASNFTNTNNYFTSVPKNFMELLTNQEAQQWVSGWRLNADSVLWGGHKVFMVKPEEPFQPVKEATQL [F38G] | 0.036 |  |  | 0.0321 |  |  |  |  |  |  |  | 0.0442 |  |  |  | 0.0279 | 
MGESLFKGPRHYNPISSSICHLTNESDGHTTSLYGIGFGPFIITNKHLFRRNNGTLVVQSLHGVFKVKDTTTLQQHLVDGRDMIIIRMPKDFPPFPQKLKFREPQREERICLVTTNFQTKSMSSMVSDTSCTFPSGDGIFWKHWIQTKDGQCGSPLVSTRDGFIVGIHSASNFTNTNNYFTSVPKNFMELLTNQEAQQWVSGWRLNADSVLWGGHKVFMVKPEEPFQPVKEATQL [D11H] | 0.138 | 0.101 | 0.106 | 0.0677 | 0.139 | 0.131 | 0.111 | 0.122 | 0.15 | 0.135 | 0.101 |  | 0.105 |  |  | 0.0741 | 
MGESLFKGPRDYNPISSSICHLTNESDGHTTSLYGIGFGPFIWTNKHLFRRNNGTLVVQSLHGVFKVKDTTTLQQHLVDGRDMIIIRMPKDFPPFPQKLKFREPQREERICLVTTNFQTKSMSSMVSDTSCTFPSGDGIFWKHWIQTKDGQCGSPLVSTRDGFIVGIHSASNFTNTNNYFTSVPKNFMELLTNQEAQQWVSGWRLNADSVLWGGHKVFMVKPEEPFQPVKEATQL [I43W] | 0.0588 | 0.0491 |  | 0.0645 |  | 0.0383 | 0.0599 | 0.0686 | 0.0561 | 0.0689 | 0.0244 |  | 0.0584 |  | 0.0581 |  | 
MGESLFKGPRDYNPISSSICHLTNESDGHTTSLYGIGFGPFIITNKHLFRRNNGTLVVQSLHGVFKVKDTTTLQQHLVDGRDMIIIRMPKDFPPFPQKLKFREPQREERICLVTTNFQTKSMSSMVSDTSCTFPSGDGIFWKHWIQTKDGQCGFPLVSTRDGFIVGIHSASNFTNTNNYFTSVPKNFMELLTNQEAQQWVSGWRLNADSVLWGGHKVFMVKPEEPFQPVKEATQL [S154F] | 0.108 | 0.0856 | 0.0789 | 0.0889 | 0.0965 | 0.0951 | 0.0912 | 0.1 |  |  |  |  |  |  | 0.0725 |  | 
MGESLFKGPRDYNPISSSICHLTNESDGHTTSLYGIGFCPFIITNKHLFRRNNGTLVVQSLHGVFKVKDTTTLQQHLVDGRDMIIIRMPKDFPPFPQKLKFREPQREERICLVTTNFQTKSMSSMVSDTSCTFPSGDGIFWKHWIQTKDGQCGSPLVSTRDGFIVGIHSASNFTNTNNYFTSVPKNFMELLTNQEAQQWVSGWRLNADSVLWGGHKVFMVKPEEPFQPVKEATQL [G39C] | 0.0451 | 0.0545 | 0.0426 |  | 0.0319 | 0.0475 | 0.0561 | 0.0451 |  |  | 0.0389 |  |  | 0.0373 |  | 0.0351 | 0.0407
